Laboratory results: patent publication US20140331365A1 (priority 2008, published 2014)

Key:
Arg9-GFP = Arg9-GFP (Aequorea victoria, UniProt P42212)
Method: FIGS. 9A-D. Modulation of effector entry into root cells by phosphoinositides a, Stimulation of Avr1b(N)-GFP entry by PI-4-P and inhibition by IP2. b, Stimulation of AvrL567(N)-GFP entry by PI-4-P and inhibition by IP2. c, Entry of Arg9-GFP is not stimulated by PI-4-P nor inhibited by IP2. In each case, 1 mg/ml protein was incubated with soybean root tips for 9 hr or 12 hr then washed and photographed. Either 250 μM di-octanoyl-PI-4-P or 500 μM IP2 was preincubated with the proteins for 30 min prior to exposure to the roots.
To test whether IP2 could block effector uptake in planta, which would imply that a PI-4-P-like molecule mediated uptake in planta, Avr1b(N)-GFP (SEQ ID NO: 46) or AvrL567(N)-GFP (SEQ ID NO: 119) was preincubated with 500 μM IP2 for 30 min prior to exposure to soybean roots.
Liposomes were prepared from a suspension of 0.71 μg/ml phosphatidyl-choline, 0.29 μg/ml phosphatidyl-ethanolamine (PC/PE) or 0.64 μg/ml phosphatidyl-choline, 0.26 μg/ml phosphatidyl-ethanolamine, 0.1 μg/ml phosphatidyl-inositol-phosphate (PC/PE/PI-x-P). The lipid mixtures were dried under vacuum overnight, then the resultant lipid films were rehydrated at 1 mg/mL (total lipid) in 20 mM Tris-HCl (pH 6.8) 100 mM NaCl, 2 mM dithiothreitol by three cycles of freeze-thawing. […] Pellets containing liposome-bound proteins and supernatants containing free proteins, were then analyzed by SDS-PAGE. […]

[1] = test system: human lung epithelial cell line A549

## O=P(O)(O)OC1[C@@H](O)[C@H](O)C(OP(=O)(O)O)[C@H](O)[C@@H]1O (some centres unmarked) [IP2, Inositol-1,4-diphosphate]
Arg9-GFP
  inhibition of binding of Arg9-GFP to liposomes: could not inhibit
[1]
  inhibition of accumulation/entry of AvrL567(N)-GFP in A549 cells: strongly inhibited
